From PubChem BioAssay AID686970 (National Center for Advancing Translational Sciences (NCATS), 2013)
Among all 360,000 compounds or so, about 6,000 (1.7%) were called active. The inconclusive results got no clear call from the source; some entries with a clear call stand among them for comparison. The call rests on the fitted dose curve; in most records, active means well fitted cell-killing curve with a large enough effect; inconclusive means small, poorly fitted or top-dose-only effect, or effect the other way; inactive means flat fitted curve, though single readings scatter. No potency is given beside an inconclusive call; the fits are too rough.
Potency means the concentration at half of the fitted maximal effect; tags describe the fitted curve by direction and shape.

Assay: qHTS for induction of synthetic lethality in tumor cells producing 2HG: qHTS for the HT-1080-NT fibrosarcoma cell line;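 further: NT is the 2HG producing partner of a matched IDH1 knockdown line; nearly all actives have a fitted effect of over 55% in size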;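 on activity, negative = less viability: 0% = DMSO-treated cells and -100% = media-only wells without cells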
Details: HT-1080-NT fibrosarcoma viability, CellTiter-Glo ATP luminescence, 48 h; activity, negative = less viability: at 46.1 µM (top of the series) unless noted
How it was run: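 A 48-hour cytotoxicity screen used HT-1080-NT cells plated 2 hours before compound delivery. ATP-based CellTiter-Glo luminescence measured viability, normalized to DMSO and no-cell controls.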
With Cc1ccc(NC(=S)N2CCC(c3nc4ccccc4s3)CC2)cc1 the Potency was inconclusive [cytotoxic, single point].
In the case of N#Cc1ccccc1NC(=O)c1ccccc1OCC(=O)Nc1ccc2c(c1)oc1ccccc12, the “activity, negative = less viability” value is reported as inactive: 5.64%.
In the case of O=C(Nc1ccc(N2CCOCC2)cc1)Nc1ccc2nc(-c3ccco3)c(-c3ccco3)nc2c1, the Potency is reported as active: 2.82 µM.
With CCCOc1ccc(C(=O)NNC(=S)NC(=O)c2ccccc2)cc1 the Potency was inconclusive [cytotoxic, single point].
With CNc1c2c(nn1C)CCCC2 the Potency was inconclusive [rising, partial curve, poor fit].
For CC(C)=CCc1c2c(c3occ(-c4ccc(O)cc4)c(=O)c3c1O)C=CC(C)(C)O2, the Potency was inconclusive [cytotoxic, single point].
In the case of CC1CCN(c2ccc(-c3cccc(NC(=O)C(F)(F)F)c3)nn2)CC1, the Potency is reported as inconclusive [cytotoxic, partial curve].
In the case of O=C(NC(Nc1nc2ccc([N+](=O)[O-])cc2s1)(C(F)(F)F)C(F)(F)F)c1ccccc1Cl, the Potency is reported as active: 3.26 µM.
For CCc1ccc2[nH]c(O)c(N=Nc3nc(-c4ccccc4)cs3)c2c1, the Potency was inconclusive [cytotoxic, single point].
With Cc1ccc(-c2nc(Nc3ccc(N4CCOCC4)cc3)c3ccccc3n2)cc1 the Potency was active: 18.4 µM.
With CCC(=O)c1c[nH]c(C(=O)NCCCn2ccnc2)c1 the “activity, negative = less viability” value was inactive: 13.9%.
In the case of CC(=O)Oc1ccc(-c2ccc(C(=O)Nc3cccc(S(=O)(=O)N4CCOCC4)c3)cc2)cc1, the Potency is reported as inconclusive [cytotoxic, partial curve].
In the case of O=C1C(NS(=O)(=O)c2cccs2)=C(N2CCN(c3cccc(Cl)c3)CC2)C(=O)c2ccccc21, the “activity, negative = less viability” value is reported as inactive: -0.217%.
With N/C(=N\OC(=O)c1ccccc1)C(C(=O)NOC(=O)c1ccccc1)C1CCCCC1 (centres undefined) the Potency was inconclusive [cytotoxic, single point].
In the case of O=C(CC(NC(=O)c1ccccc1)c1ccccc1)Nc1ccc(F)c(F)c1 (centres undefined), the Potency is reported as inconclusive [cytotoxic, single point].
For Cc1sc(NC(=O)c2ccco2)c(C(c2cccnc2)N2CCC(C)CC2)c1C (centres undefined), the Potency was active: 20.6 µM.
In the case of CC(=O)Nc1ccc(CN2CCCC(C(=O)c3ccc(C(F)(F)F)cc3)C2)cc1 (centres undefined), the “activity, negative = less viability” value is reported as inactive: -27.7%.
For CC(=O)c1sc(NC(=O)c2cccs2)nc1C, the Potency was inconclusive [cytotoxic, partial curve, poor fit].
For N=NC(=O)c1ccccc1Nc1c(O)[nH]c2ccccc12, the Potency was inconclusive [cytotoxic, single point].
In the case of CC(=O)N1CCN(c2nc3ccc(Br)cc3s2)CC1, the Potency is reported as inconclusive [cytotoxic, single point].
With O=C(CCl)N(c1ccccc1)c1ccccc1 the Potency was active: 6.51 µM.
With COc1cccc(CNc2nc3cc(-c4ccccc4C)sc3c(=O)n2C)c1OC the Potency was inconclusive [cytotoxic, single point].
In the case of O=C(c1ccccc1)c1c(O)nc(-c2ccccc2)n(-c2ccccc2)c1=O, the Potency is reported as inconclusive [rising, full curve].
In the case of Nc1ncnc2oc(-c3ccco3)c(-c3ccco3)c12, the Potency is reported as inconclusive [cytotoxic, single point].
With COc1ccc(/C=C\C(=O)CC(O)(c2ccccc2)C(F)(F)F)cc1 (centres undefined) the Potency was inconclusive [cytotoxic, single point].
In the case of O=C(NCC(F)(F)F)c1cc2c(c(-c3cccc(-c4ccccc4F)c3)n1)[C@H](CCO)N(C(=O)CC1CC1)C2, the Potency is reported as inconclusive [cytotoxic, partial curve].
With O=C(N/N=C/c1ccc(OC2CSC2)cc1)c1ccc(CN2CCOCC2)cc1 the activity, negative = less viability was inconclusive: -1.45% [cytotoxic].
With COc1cccc(-c2csc(N3CCN(C(=S)Nc4cccc(Cl)c4)CC3)n2)c1 the Potency was inconclusive [cytotoxic, single point].
With CC(C)Cc1nc(N2CCN(C(=O)c3ccco3)CC2)c(C#N)c2c1CCCC2 the Potency was inconclusive [cytotoxic, single point].
In the case of CCC(=O)Nc1ccc(S(=O)(=O)Nc2cccc(C)c2)cc1OC, the Potency is reported as inconclusive [cytotoxic, single point].
In the case of Cc1occc1-c1nnc(SC(C)C(=O)Nc2ccccc2F)o1 (centres undefined), the Potency is reported as inconclusive [cytotoxic, single point].
For C(=C\c1ccccc1)/CSc1nnc(-c2cccnc2)o1, the “activity, negative = less viability” value was inactive: 6.4%.
For CC(=O)Nc1ccc(-c2ccnc3c2CC(C)(C(=O)Nc2cccc(OC(F)(F)F)c2)O3)cc1 (centres undefined), the Potency was active: 25.9 µM.
With Cc1[nH]c2ccccc2c1C(=O)CN1C(=O)NC2(CC(C)CC(C)(C)C2)C1=O (centres undefined) the “activity, negative = less viability” value was inactive: -12.6%.
With O=C(Nc1cccc(Cl)c1)Nc1cc(S(=O)(=O)N2CCCCC2)ccc1Cl the Potency was inconclusive [cytotoxic, partial curve].
In the case of CCOC(=O)[C@]12CCCC=C1N(Cc1ccc(Cl)cc1Cl)C(=O)[C@H](CC(=O)NCCC(C)C)C2, the Potency is reported as inconclusive [cytotoxic, single point].
In the case of O=C(O)c1cccc(CN2C(=O)S/C(=C/c3cccc([N+](=O)[O-])c3)C2=O)c1, the Potency is reported as inconclusive [cytotoxic, single point].
With COc1cc(C(=O)Nc2scc(-c3ccc(C)cc3)c2C(=O)O)cc(OC)c1OC the “activity, negative = less viability” value was inactive: 5.67%.
With O=C(CCNC(=O)c1ccco1)Nc1ccc(Cl)cc1 the activity, negative = less viability was inconclusive: -22.7% [cytotoxic].
With CCOC(=O)/C(=N\Nc1ccccc1)P(=O)(c1ccccc1)c1ccccc1 the Potency was inconclusive [cytotoxic, single point].
For CC(OC(=O)c1cc(=O)[nH]c2ccccc12)C(=O)c1ccccc1 (centres undefined), the “activity, negative = less viability” value was inactive: 9.28%.
For CCn1cc(C(=O)NCCc2ccc(OC)c(OC)c2)c(=O)c2cc(S(=O)(=O)N3CCOCC3)ccc21, the “activity, negative = less viability” value was inactive: -9.15%.
In the case of CC(C)CCCCCCNC(=S)Nc1ccc(S(=O)(=O)N2CCOCC2)cc1, the Potency is reported as inconclusive [cytotoxic, single point].
With O=C(CSc1ccccc1)Nc1cccnc1 the activity, negative = less viability was inconclusive: 31.4%.
With O=S(=O)(c1cccc(NC(=S)N2CCN(c3cccc(Cl)c3)CC2)c1)C(F)F the Potency was active: 20.6 µM.
For CCc1cccc(CC)c1N(COC)C(=O)Cn1cnc2ccccc21, the “activity, negative = less viability” value was inactive: 2.23%.
With COC(=O)C1=C(CN2CCCc3ccccc32)NC(=O)NC1c1ccc(F)cc1 (centres undefined) the Potency was inconclusive [cytotoxic, single point].
For CCCc1nc2c([nH]1)c(=O)n(C)c(=O)n2C, the Potency was inconclusive [cytotoxic, full curve].
For O=C(NCC(c1cccs1)N1CCOCC1)c1cnc(Cl)c(Cl)c1 (centres undefined), the Potency was inconclusive [cytotoxic, single point].
For COc1cccc(/C=C/C(=O)c2ccc3c(c2)OCO3)c1OC, the “activity, negative = less viability” value was inactive: -10%.
With CCc1nc2ccc(C(=O)Nc3ccc(Cl)c(Cl)c3)cn2c1N(C)Cc1ccc(OC)cc1 the Potency was inconclusive [cytotoxic, single point].
With O=C(COC(=O)c1cccs1)Nc1cccc(S(=O)(=O)N2CCCCC2)c1 the “activity, negative = less viability” value was inactive: -4.36%.
In the case of COc1ccccc1N1CCN(C(=S)Nc2cccc(C)c2)CC1, the “activity, negative = less viability” value is reported as inactive: -26%.
In the case of COc1ccc(Cn2c(-c3ccc(Br)cc3)c[n+]3ccccc23)cc1, the Potency is reported as inconclusive [cytotoxic, single point].
For O=C(NC(=S)NCCc1ccccc1)c1ccccc1, the Potency was inconclusive [cytotoxic, full curve, poor fit].
With O=c1[nH][nH]c2c1[C@H](CCc1cccc(Cl)c1)O[C@H](C1CCCC1)C2 the Potency was inconclusive [cytotoxic, single point].
In the case of CCOC(=O)[C@]12CCC=C1N(Cc1cccc3ccccc13)C(=O)[C@H](CC(=O)N1CCOCC1)C2, the “activity, negative = less viability” value is reported as inactive: -27.5%.
With Cc1ccc(C)c2c3c([nH]c12)-c1nonc1CC3 the Potency was inconclusive [cytotoxic, single point].
For CCC(CC)c1nnc(NC(=O)CCS(=O)(=O)Cc2ccccc2)s1, the Potency was inconclusive [cytotoxic, single point].
In the case of CCOc1ccc(CCN2C(=S)N([C@@H](CC(C)C)CN3CCCC3CN3C(=S)NC[C@@H]3Cc3ccccc3)C[C@@H]2CC(C)C)cc1 (some centres undefined), the Potency is reported as inconclusive [cytotoxic, partial curve].
With Cc1ccc2nc(-c3ccc(NC(=O)COC(=O)c4ccc(Br)o4)cc3)sc2c1 the Potency was inconclusive [cytotoxic, partial curve].
For CCC(C)NC(=O)Cn1cnc2sc(C)c(S(=O)(=O)N3CCN(c4ncccn4)CC3)c2c1=O (centres undefined), the “activity, negative = less viability” value was inactive: 16.2%.
For CC1(C(=O)NCc2ccco2)Cc2c(-c3ccc(C(N)=O)cc3)ccnc2O1 (centres undefined), the Potency was active: 3.26 µM.
In the case of CN(Cc1ccccc1)C(=O)c1ccc(Nc2nc(C(N)COCc3ccccc3)cs2)nc1 (centres undefined), the Potency is reported as active: 23.1 µM.
In the case of CC(O)(c1cccc(F)c1)c1nc(-c2ccoc2)cs1 (centres undefined), the Potency is reported as inconclusive [cytotoxic, single point].
For C/C(=N/NC(=O)c1ccc(Br)s1)c1ccncc1, the “activity, negative = less viability” value was inactive: -1.12%.
With Cc1nc(NC(=O)/C=C/c2ccccc2)sc1C(=O)Nc1ccc(Cl)cc1 the Potency was inconclusive [cytotoxic, single point].
With CCOC(=O)Nc1cc2c(c(N)n1)N=C(c1ccccc1)CN2 the Potency was active: 0.461 µM.
With CCOC(=O)c1ccc(NC(=S)N(CCCN2CCN(C)CC2)Cc2cccs2)cc1 the Potency was inconclusive [cytotoxic, partial curve].
